# Test results taken from the supplement of paper PMC8728848.
# This is one part of the list.
# B1: RVL (Remusatia vivipara), B5LYJ9 (protein)
# chain: MAKLLLFLLPAILGLLVPRSAVALGTNYLLSGQTLDTEGHLKNGDFDLVMQDDCNLVLYNGNWQSNTANNGRDCKLTLTDYGELVIKNGDGSTVWKSGAQSVKGNYAAVVHPDGRLVVLGPSVFKIDPWVRGLNSLRFRNIPFTNNLLFSGQVLYGDGRLTAKNHQLVMQGDCNLVLYGGKYGWQSNTHGNGEHCFLRLNHKGELIIKDDDFKTIWSSRSSSKQGEYVLILQDDGFGVIYGPAIFETSSKRSIAAS
# Key:
# Test in all cases: glycan array binding signal (z-score within array); higher = stronger binding
# Settings in all cases: glycan notation: IUPAC condensed, linker removed
# [1] = biological target: Gal(b1-4)Glc
# Outline: (§1)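 From the Consortium for Functional Glycomics database, 3228 arrays were curated, keeping only those whose protein sequence was available. Binding is given as a within-array Z-score averaged across arrays sharing a protein sequence and across linkers. Negative Z-scores can be read as non-binding.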
# [2] = biological target: Gal(b1-4)Glc6S
# Outline: as §1
# [3] = biological target: Gal(b1-4)GlcNAc
# Outline: as §1
# [4] = biological target: Gal(b1-4)GlcNAc(a1-6)Gal(b1-4)GlcNAc
# Outline: as §1
# [5] = biological target: Gal(b1-4)GlcNAc(b1-2)Man
# Outline: as §1
# [6] = biological target: Gal(b1-4)GlcNAc(b1-2)Man(a1-3)Man(b1-4)GlcNAc(b1-4)GlcNAc
# Outline: as §1
# [7] = biological target: Gal(b1-4)GlcNAc(b1-2)Man(a1-3)[Gal(b1-4)GlcNAc(b1-2)Man(a1-6)]Man(b1-4)GlcNAc(b1-4)GlcNAc
# Outline: as §1
# [8] = biological target: Gal(b1-4)GlcNAc(b1-2)Man(a1-3)[Gal(b1-4)GlcNAc(b1-2)Man(a1-6)]Man(b1-4)GlcNAc(b1-4)[Fuc(a1-6)]GlcNAc
# Outline: as §1
# [9] = biological target: Gal(b1-4)GlcNAc(b1-2)Man(a1-3)[Gal(b1-4)GlcNAc(b1-2)][GlcNAc(b1-4)]Man(b1-4)GlcNAc(b1-4)GlcNAc
# Outline: as §1
# [10] = biological target: Gal(b1-4)GlcNAc(b1-2)Man(a1-3)[GlcNAc(b1-2)Man(a1-6)]Man(b1-4)GlcNAc(b1-4)GlcNAc
# Outline: as §1
# [11] = biological target: Gal(b1-4)GlcNAc(b1-2)Man(a1-3)[Man(a1-6)]Man(b1-4)GlcNAc(b1-4)GlcNAc
# Outline: as §1
# [12] = biological target: Gal(b1-4)GlcNAc(b1-2)Man(a1-6)Man(b1-4)GlcNAc(b1-4)GlcNAc
# Outline: as §1
# [13] = biological target: Gal(b1-4)GlcNAc(b1-2)Man(a1-6)[GlcNAc(b1-2)Man(a1-3)]Man(b1-4)GlcNAc(b1-4)GlcNAc
# Outline: as §1
# [14] = biological target: Gal(b1-4)GlcNAc(b1-2)Man(a1-6)[Man(a1-3)]Man(b1-4)GlcNAc(b1-4)GlcNAc
# Outline: as §1
# [15] = biological target: Gal(b1-4)GlcNAc(b1-2)[Gal(b1-4)GlcNAc(b1-4)]Man(a1-3)[Gal(b1-4)GlcNAc(b1-2)Man(a1-6)]Man(b1-4)GlcNAc(b1-4)GlcNAc
# Outline: as §1
# [16] = biological target: Gal(b1-4)GlcNAc(b1-2)[Gal(b1-4)GlcNAc(b1-4)]Man(a1-3)[Gal(b1-4)GlcNAc(b1-2)[Gal(b1-4)GlcNAc(b1-6)]Man(a1-6)]Man(b1-4)GlcNAc(b1-4)GlcNAc
# Outline: as §1
# [17] = biological target: Gal(b1-4)GlcNAc(b1-2)[Gal(b1-4)GlcNAc(b1-4)]Man(a1-3)[GlcNAc(b1-4)][Gal(b1-4)GlcNAc(b1-2)Man(a1-6)]Man(b1-4)GlcNAc(b1-4)GlcNAc
# Outline: as §1
# [18] = biological target: Gal(b1-4)GlcNAc(b1-2)[Gal(b1-4)GlcNAc(b1-4)]Man(a1-3)[GlcNAc(b1-4)][Gal(b1-4)GlcNAc(b1-2)[Gal(b1-4)GlcNAc(b1-6)]Man(a1-6)]Man(b1-4)GlcNAc(b1-4)GlcNAc
# Outline: as §1
# [19] = biological target: Gal(b1-4)GlcNAc(b1-2)[Gal(b1-4)GlcNAc(b1-4)]Man(a1-3)[GlcNAc(b1-4)][Gal(b1-4)GlcNAc(b1-2)[Gal(b1-4)GlcNAc(b1-6)]Man(a1-6)]Man(b1-4)GlcNAc(b1-4)[Fuc(a1-6)]GlcNAc
# Outline: as §1
# [20] = biological target: Gal(b1-4)GlcNAc(b1-2)[Gal(b1-4)GlcNAc(b1-6)]Man(a1-6)[Gal(b1-4)GlcNAc(b1-2)Man(a1-3)]Man(b1-4)GlcNAc(b1-4)GlcNAc
# Outline: as §1
# [21] = biological target: Gal(b1-4)GlcNAc(b1-2)[Gal(b1-4)GlcNAc(b1-6)]Man(a1-6)[Gal(b1-4)GlcNAc(b1-2)Man(a1-3)]Man(b1-4)GlcNAc(b1-4)[Fuc(a1-6)]GlcNAc
# Outline: as §1
# [22] = biological target: Gal(b1-4)GlcNAc(b1-2)[Gal(b1-4)GlcNAc(b1-6)]Man(a1-6)[GlcNAc(b1-4)][Gal(b1-4)GlcNAc(b1-2)Man(a1-3)]Man(b1-4)GlcNAc(b1-4)GlcNAc
# Outline: as §1
# [23] = biological target: Gal(b1-4)GlcNAc(b1-3)Gal(b1-3)GlcNAc
# Outline: as §1
# [24] = biological target: Gal(b1-4)GlcNAc(b1-3)Gal(b1-4)Glc
# Outline: as §1
# [25] = biological target: Gal(b1-4)GlcNAc(b1-3)Gal(b1-4)GlcNAc
# Outline: as §1
# [26] = biological target: Gal(b1-4)GlcNAc(b1-3)Gal(b1-4)GlcNAc(b1-3)Gal(b1-4)GlcNAc
# Outline: as §1
# [27] = biological target: Gal(b1-4)GlcNAc(b1-3)Gal(b1-4)[Fuc(a1-3)GlcNAc(b1-6)]Gal(b1-4)Glc
# Outline: as §1
# [28] = biological target: Gal(b1-4)GlcNAc(b1-3)Gal(b1-4)[Fuc(a1-3)]GlcNAc(b1-3)Gal(b1-4)[Fuc(a1-3)]GlcNAc
# Outline: as §1
# [29] = biological target: Gal(b1-4)GlcNAc(b1-3)GalNAc
# Outline: as §1
# [30] = biological target: Gal(b1-4)GlcNAc(b1-3)[Gal(b1-4)GlcNAc(b1-6)]Gal(b1-4)GlcNAc
# Outline: as §1
# [31] = biological target: Gal(b1-4)GlcNAc(b1-3)[Gal(b1-4)GlcNAc(b1-6)]GalNAc
# Outline: as §1
# [32] = biological target: Gal(b1-4)GlcNAc(b1-3)[GlcNAc(b1-6)]Gal(b1-4)GlcNAc
# Outline: as §1
# [33] = biological target: Gal(b1-4)GlcNAc(b1-6)Gal(b1-4)GlcNAc
# Outline: as §1
# [34] = biological target: Gal(b1-4)GlcNAc(b1-6)GalNAc
# Outline: as §1
# [35] = biological target: Gal(b1-4)GlcNAc(b1-6)[Gal(b1-3)]GalNAc
# Outline: as §1
# [36] = biological target: Gal(b1-4)GlcNAc6P
# Outline: as §1
# [37] = biological target: Gal(b1-6)Gal
# Outline: as §1
binder,measurement,setting,value
B1,glycan array binding signal (z-score),[1],-0.167
same,glycan array binding signal (z-score),[2],-0.182
same,glycan array binding signal (z-score),[3],-0.182
same,glycan array binding signal (z-score),[4],-0.142
same,glycan array binding signal (z-score),[5],-0.045
same,glycan array binding signal (z-score),[6],-0.155
same,glycan array binding signal (z-score),[7],0.527
same,glycan array binding signal (z-score),[8],7.05
same,glycan array binding signal (z-score),[9],-0.136
same,glycan array binding signal (z-score),[10],1.11
same,glycan array binding signal (z-score),[11],0.744
same,glycan array binding signal (z-score),[12],-0.136
same,glycan array binding signal (z-score),[13],0.007
same,glycan array binding signal (z-score),[14],1.16
same,glycan array binding signal (z-score),[15],0.974
same,glycan array binding signal (z-score),[16],0.596
same,glycan array binding signal (z-score),[17],-0.157
same,glycan array binding signal (z-score),[18],0.112
same,glycan array binding signal (z-score),[19],0.097
same,glycan array binding signal (z-score),[20],0.497
same,glycan array binding signal (z-score),[21],0.127
same,glycan array binding signal (z-score),[22],-0.158
same,glycan array binding signal (z-score),[23],-0.061
same,glycan array binding signal (z-score),[24],-0.252
same,glycan array binding signal (z-score),[25],-0.29
same,glycan array binding signal (z-score),[26],-0.018
same,glycan array binding signal (z-score),[27],-0.111
same,glycan array binding signal (z-score),[28],-0.213
same,glycan array binding signal (z-score),[29],-0.139
same,glycan array binding signal (z-score),[30],-0.161
same,glycan array binding signal (z-score),[31],-0.01
same,glycan array binding signal (z-score),[32],-0.23
same,glycan array binding signal (z-score),[33],-0.216
same,glycan array binding signal (z-score),[34],-0.113
same,glycan array binding signal (z-score),[35],-0.232
same,glycan array binding signal (z-score),[36],-0.449
same,glycan array binding signal (z-score),[37],-0.205
